Reference: publication PMC5522996, “Big conductance calcium‐activated potassium channel openers control spasticity without sedation” (British Journal of Pharmacology, 2017)

Tested on: healthy humans
Assay: Phase I single dose: heart rate and blood pressure supine/standing
Details: 30min

C[C@H](CO)NC(=O)c1cccc(/C=C\CCCC(=O)N(C)C)c1 [VSN16R]
Systolic Blood Pressure Supine (25mg): 115 ± 7 mm Hg | Systolic Blood Pressure Supine (800mg): 115 ±9 mm Hg
